Where “and” joins values, the source holds several entries; their conditions need not be identical. Equal values may be shown once. Screen size: about 350,000 compounds; about 9,900 (2.8%) were called active. Inconclusive means that the source gave no clear call. Such entries were picked first, then a sample of the others. Calls follow the shape of the dose curve; as a rule, active = well fitted activation curve with a large enough effect; inconclusive = small, poorly fitted or top-dose-only effect; inactive = no such curve, though single readings can be large or run the other way. Where the call is inconclusive, the potency comes from a doubtful curve fit.
test: A quantitative high throughput screen for small molecules that induce DNA re-replication in MCF 10a normal breast cells.; also: nearly all actives have a fitted effect of over 50% in size; as to activity, positive = re-replication: % of control where 0% means no effect; conditions: MCF 10A DNA re-replication, Hoechst nuclear intensity, 48 h; activity, positive = re-replication: at 46.1 µM (top of the series)
Potency is read from the fitted curve at half-maximal effect; tags tell the direction and shape of the fitted curve.

SMILES	Potency	activity, positive = re-replication
CSc1nccc(-c2nn(-c3ccc(C)cc3)ccc2=O)n1	active: 8.2 µM	–
CCCCNC(=O)Oc1cccc(N2CCCC2=O)c1	inconclusive: 20.6 µM [activator, partial curve, poor fit]	–
CCCCn1c2nc3ccccc3nc2c2c(=O)n(-c3ccccc3)cnc21	inconclusive: 29.1 µM [activator, single point]	–
O=[N+]([O-])c1ccccc1OCCOCCOc1cccc2cccnc12	inconclusive: 29.1 µM [activator, partial curve, poor fit]	–
CC(C)(CO)NC(=O)c1ccc2nc(Cc3cccc(Cl)c3)oc2c1	–	inactive: 1.35%
C/C(=N\NC(=O)c1ccccc1)C1C2C=CC(C2)C1(C)C (stereo not given)	inconclusive: 5.17 µM [activator, partial curve, poor fit]	–
CCc1noc(C)c1C(=O)Nc1ccc(C#N)cc1	inconclusive: 4.11 µM [activator, full curve, poor fit]	–
C=C(C)COc1ccc(-c2[nH]ncc2-c2ccc(Br)cc2)c(O)c1	active: 9.2 µM	–
CC(C)c1ccc(-c2csc3ncnc(N4CCN(C)CC4)c23)cc1	inconclusive: 0.259 µM [activator, full curve, poor fit]	–
Cc1ccc2nc(CCc3nc4ccc(C)cc4[nH]3)[nH]c2c1	inconclusive: 3.66 µM [activator, single point]	–
O=C(c1ccc(-c2ccccc2)c(F)c1)C1CCCN(CCCn2cccn2)C1 (stereo not given)	inconclusive: 8.2 µM [activator, partial curve]	–
CCOc1ccc(NC(=O)CN(C)C(=O)C2CC(=O)N(c3ccc4c(c3)OCCO4)C2)cc1OCC (stereo not given)	–	inactive: 1.23%
Oc1c(I)cc(Cl)c2cccnc12	inconclusive: 150 nM [activator, full curve, poor fit] and inconclusive: 6.51 µM [activator, partial curve]	–
CCC(=O)OCc1cc2cccc(C)c2[nH]c1=O	inconclusive: 23.1 µM [activator, partial curve, poor fit]	–
Nc1ccccc1C(=O)NCC1(c2ccccc2)CCCC1	inconclusive: 2.31 µM [activator, full curve]	–
CCOC(=O)c1c(NC(=O)COC(=O)CNC(=O)c2ccco2)sc(C(C)=O)c1C	–	inactive: 12%
NC(=S)NN=C1c2ccccc2-c2c(F)c(F)c(F)c(F)c21	active: 6.51 µM	–
O=C(CNC(=S)N(CCCN1CCOCC1)Cc1cccs1)NC1CCCCCCC1	inconclusive: 16.4 µM [activator, single point]	–
COc1ccc2c(=O)cc(-c3ccncc3)oc2c1OC	inconclusive: 20.6 µM [activator, single point]	–
CCCN1C(=O)/C(=C/c2ccc(N3CCCC3)c(C)c2)NC1=S	inconclusive: 6.51 µM [activator, single point]	–
Cc1cc(NC(=O)C(C)SCC(=O)N(Cc2ccccc2)c2ccccc2)no1 (stereo not given)	inconclusive: 11.6 µM [activator, single point]	–
CCCn1c(O)c(N=NC(=O)c2ccco2)c2ccccc21	–	inactive: 13.9%
Cc1nc2ccccn2c1C(=O)N/N=C/c1ccccc1Cl	–	inactive: -1.89%
Cc1cc(NC(=O)COC(=O)c2cc([N+](=O)[O-])ccc2N2CCOCC2)ccc1Br	inconclusive: 0.0651 µM [activator, full curve, poor fit]	–

SMILES	Potency	activity, positive = re-replication
CC(=O)Nc1sc(/C(C#N)=C/c2ccc(Cl)c(Cl)c2)nc1-c1ccc(C)cc1	active: 1.84 µM	–
CN(C)CCNC(=O)c1coc(=O)c(Br)c1	–	inactive: 21.6%
Cc1cccc(CC(=O)Nc2cccnc2)c1	–	inactive: -0.229%
Cc1ccccc1OCC(=O)N1CCCc2ccccc21	–	inactive: 0.598%
O=C1C(Cc2ccccc2)Nc2ncnc(N3CCCCC3)c2N1Cc1ccccc1 (stereo not given)	inconclusive: 0.0052 µM [activator, full curve, poor fit]	–
Nc1nc(-c2ccc(NC(=O)c3ccco3)cc2)cs1	–	inactive: 10.4%
COc1ccccc1N(Cc1ccccc1)S(=O)(=O)c1cc(C(=O)O)ccc1Cl	active: 18.4 µM	–
O=Cc1cn(-c2ccc(F)cc2)c2ccccc12	inconclusive: 18.4 µM [activator, partial curve, poor fit]	–
O=C(Nc1ccccc1)OCc1cc(-c2ccccc2Cl)on1	active: 25.9 µM	–
C/C(=N/Nc1ccc([N+](=O)[O-])cc1)c1ccc(C)cc1C	inconclusive: 25.9 µM [activator, partial curve, poor fit]	–
COCCNC(=O)c1ccc2nc(Cc3ccc(OC)c(OC)c3)oc2c1	active: 3.26 µM	–
CCCCOC(=O)CSC1=C(C#N)C(c2cccnc2)C(C(=O)OCC)=C(c2ccccc2)N1 (stereo not given)	active: 18.4 µM	–
O=C(COC(=O)c1ccccc1Cl)NC(=O)NCc1ccccc1	inconclusive: 2.91 µM [activator, single point]	–
COc1ccc(N2C3=C(C(=O)CC(C)(C)C3)C(c3ccccc3OC)C3=C2CC(C)(C)CC3=O)cc1	active: 16.4 µM	–
CCc1nc(NCc2ccc3c(c2)OCO3)c2oc3ccccc3c2n1	inconclusive: 20.6 µM [activator, single point]	–
Cc1nn(Cc2c(Cl)cccc2Cl)c(C)c1N	–	inactive: -1.23%
O=C(CCl)N1N=C(c2ccco2)CC1c1ccco1 (stereo not given)	inconclusive: 20.6 µM [activator, single point]	–
C=CCCC(=O)Nc1ccc(COC(=O)N2CCOCC2)cc1	inconclusive: 13 µM [activator, partial curve, poor fit]	–
CC(=O)N1/C(=C/c2ccc(N(C)C)cc2)C(=O)c2ccccc21	inconclusive: 7.31 µM [activator, partial curve, poor fit]	–
CC(C)C[C@H](NC(=O)OC(C)(C)C)C(=O)N[C@@H](CO)[C@H](O)[C@@H]1C[C@@H]1C(=O)NC1CCCCC1	inconclusive: 4.61 µM [activator, full curve, poor fit]	–
COc1cccc2sc3cc(NCCCN4CCOCC4)ccc3c(=O)c12	active: 18.4 µM	–
O=C(Cc1cccc(NC(=O)C2CCCN(C(=O)c3ccccc3)C2)c1)Nc1cccc(C(=O)N2CCCCC2)c1 (stereo not given)	inconclusive: 0.0046 µM [activator, full curve, poor fit]	–
C=CCN1c2ccccc2[C@]23C[C@@H](C(=O)OC)N(C(=O)c4ccc(Br)cc4)C2=NC(C(=O)OC)=C(C(=O)OC)[C@H]13	–	inactive: -1.09%
N#Cc1c(C(F)(F)F)cc(-c2ccccc2Cl)[nH]c1=O	active: 14.6 µM	–

SMILES	Potency	activity, positive = re-replication
O=C(Cc1ncc(C(F)(F)F)cc1Cl)N1CCN(c2ccccn2)CC1	inconclusive: 14.6 µM [activator, single point]	–
COc1cccc(-c2csc(NC3OC(=O)c4c3ccc(OC)c4OC)n2)c1 (stereo not given)	inconclusive: 20.6 µM [activator, single point]	–
CC(=O)N1CCSc2ccc(S(=O)(=O)Nc3ccccc3C)cc21	–	inactive: 7.4%
Fc1cccc(-c2cc3nc(-c4ccccc4)cc(N4CCC5(CC4)OCCO5)n3n2)c1	–	inactive: 14%
COc1ccc(CSc2ccc(-c3nc4ccccn4c3NCc3ccccc3)cc2OC)cc1	active: 23.1 µM	–
NC(=O)c1ccc(C(F)(F)F)n(Cc2ccc(F)c(F)c2)c1=O	inconclusive: 7.94 µM [activator, partial curve, poor fit]	–
COCC(=O)N1CCC2CC1c1cc(Cl)ccc12 (stereo not given)	–	inactive: -0.836%
COCC1CCN(Cc2c(C(=O)N3CCc4ccccc4C3)nc3ccc(Cl)cn23)C1 (stereo not given)	inconclusive: 29.1 µM [activator, single point]	–
CN1CCC2CC1c1cc(-c3ccc(C(F)(F)F)cc3)ccc12 (stereo not given)	inconclusive: 2.06 µM [activator, full curve]	–
CCc1nnc(NC(=O)CSc2ccc(-c3ccc(-n4cccn4)cc3)nn2)s1	inconclusive: 25.9 µM [activator, partial curve, poor fit]	–
CCCc1cc(NCCCn2ccnc2)n2nc(C)c(-c3ccccc3)c2n1	inconclusive: 0.82 µM [activator, full curve, poor fit]	–
COc1cc2cc(CN(Cc3cccs3)C(=S)Nc3ccc(C)cc3)c(=O)[nH]c2cc1OC	inconclusive: 4.11 µM [activator, full curve, poor fit]	–
O=C(COc1ccc(NC(=O)c2cccs2)cc1)c1ccc(F)cc1	inconclusive: 20.6 µM [activator, partial curve, poor fit]	–
CCCOc1ccc(-c2nn(-c3ccccc3)cc2/C=C2\SC(N)=NC2=O)cc1	active: 4.61 µM	–
COc1cccc(-n2c(-c3ccco3)nc3nc4ccccc4nc32)c1	–	inactive: -10.2%
CSc1ccccc1Nc1ncnc(N)n1	–	inactive: -3.06%
Cc1ccc(S(=O)(=O)NCc2ccc(C(=O)NC3CCC(O)CC3)cc2)cc1C (stereo not given)	inconclusive: 29.1 µM [activator, single point]	–
CCCOc1ccc(NC(=O)CC2C(=O)N(C)C(=S)N2Cc2ccc3c(c2)OCO3)cc1 (stereo not given)	inconclusive: 16.4 µM [activator, single point]	–
O=C(Nc1cccnc1Cl)C1CCCN(c2ncnc3c2nc2n3CCCCC2)C1 (stereo not given)	inconclusive: 2.59 µM [activator, partial curve, poor fit]	–
CC1=C(C(=O)OCCOc2ccccc2)C(c2coc3ccccc3c2=O)C2=C(CCCC2=O)N1 (stereo not given)	inconclusive: 23.1 µM [activator, partial curve, poor fit]	–
Cc1cccc(NC(=O)c2ccc(S(=O)(=O)NCc3cccnc3)cc2)c1	–	inactive: -1.24%
CCOC(=O)c1cc(-c2ccccc2)n(CC(=O)Nc2cc(OC)cc(OC)c2)c1C	inconclusive: 20.6 µM [activator, single point]	–

Reference: PubChem BioAssay AID624296 (National Center for Advancing Translational Sciences (NCATS), 2012)
